# Measured values as given in the RNAGym collection of RNA variant scans (doi:10.1073/pnas.2313332121).
# Variants at the background level are over-represented here.
# B1: TPR 5TU (parent)
# chain: GGAUCUUCUCGAUCUAACAAAAAAGACAAAUCUGCCACAAAGCUUGAGAGCAUCUUCGGAUGCAGAGGCGGCAGCCUUCGGUGGCGCGAUAGCGCCAACGUUCUCAACUAUGACACGCAAAACGCGUGCUCCGUUGAAUGGAGUUUAUCAUG
# Variants of: B1
# Assay: polymerase ribozyme fitness, log enrichment relative to wild type (log ratio); higher = more active; in vitro selection for triplet polymerase activity
# How it was run: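 Mutant libraries of each subunit of a heterodimeric triplet polymerase ribozyme were built by PCR and transcribed. Each library went through one round of in vitro selection in triplicate: annealing with biotinylated primer, partner subunit and triplets, frozen incubation at −7 °C, gel excision of extended constructs, streptavidin-bead capture and RT-PCR. Input and output libraries were Illumina-sequenced; only genotypes with ≥10 input reads and ≥1 read per output were kept. Fitness is log2(genotype enrichment/wild-type enrichment), using inverse-variance-weighted replicate averages.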
row,Variant,polymerase ribozyme fitness (log ratio)
1,C8U A29G A52G U56A U127G,≤ -4.2
2,C8U A40C A41G G50A U56A C93A,≤ -4.2
3,C8U A41C G46C G71A G83U C116G,≤ -4.2
4,C8U A41C U55A G68A G86A U90G A113G,≤ -4.2
5,C8U A47G,-3.73
6,C8U A52C G68C,≤ -4.2
7,C8U A66C C93U G124A,≤ -4.2
8,C8U A73U,-3.97
9,C8U A91U C95A C96A A97C A113G C114G A115G A147U,≤ -4.2
10,C8U C10A U31C A91U C108A U109G G126A G143A U145G U148A,≤ -4.2
11,C8U C10G G11C A49C G81C C93A A107C C118U,≤ -4.2
12,C8U C14G U53A C63A C93U,≤ -4.2
13,C8U C14U A26G G81U C85U C105G A113U,≤ -4.2
14,C8U C18G A41C C51G C57U G67C C95A,≤ -4.2
15,C8U C18G C35A U53A G58C,≤ -4.2
16,C8U C18U A20U A22C G42C U78A C87A U104A,≤ -4.2
17,C8U C27G A40G U78G C85G A98C A150G,≤ -4.2
18,C8U C27U A39U G42C A66U G92C G141A,≤ -4.2
19,C8U C27U G92U U135A U144G U146G C149G,≤ -4.2
20,C8U C35G G59C C96A C103A,≤ -4.2
21,C8U C38G G92U C95U C99U U104A U145G,≤ -4.2
22,C8U C38U G48A A60C C72G C96A C99U C114G U139G U148G,≤ -4.2
23,C8U C43G A47U A64G G70A C79G C99G U135C G136C U145A,≤ -4.2
24,C8U C43U,≤ -4.2

row,Variant,polymerase ribozyme fitness (log ratio)
1,C8U C63G C87U C129G U139C G143U,≤ -4.2
2,C8U C123G,-3.42
3,C8U G25U U55A G62C C85G U144G,≤ -4.2
4,C8U G42C C51U U61G C95A C125G U127G A137U C149G,≤ -4.2
5,C8U G46A U61A,≤ -4.2
6,C8U G46C A52C A64C C93G,≤ -4.2
7,C8U G50A C75G A91G C114A,≤ -4.2
8,C8U G68U,≤ -4.2
9,C8U G83A,-2.94
10,C8U G84A G136C,≤ -4.2
11,C8U G88U C93U,-4.14
12,C8U G92U,-3.35
13,C8U U13A C57U C95U G140C,≤ -4.2
14,C8U U13A G83A C99A G141A,≤ -4.2
15,C8U U13C A49C C51U G67A G81C G141A,≤ -4.2
16,C8U U33C A37C A60U C93G,≤ -4.2
17,C8U U33G A49U C51A C76G G136A,≤ -4.2
18,C8U U53G C87G,≤ -4.2
19,C8U U53G U55A A60U C75G G94C,≤ -4.2
20,C8U U56A,-3.09
21,C8U U61C G80C C85U C99U U146A,≤ -4.2
22,U9A A12U A20C A29U C93G C95G,≤ -4.2
23,U9A A16G A66G G86U,≤ -4.2
24,U9A A16G C93G C103U U104A U135A C149G,≤ -4.2

row,Variant,polymerase ribozyme fitness (log ratio)
1,U9A A16G U44A G46C U90C A120G,≤ -4.2
2,U9A A17C A20C C54U U55G G58A G67A C116G G143A,≤ -4.2
3,U9A A17C U31C U102G C103G U127G,≤ -4.2
4,U9A A17G A20C A37C G59A G70C A137U,≤ -4.2
5,U9A A17U C18G A22U G140C,≤ -4.2
6,U9A A17U G50C C57U G71C C87A,≤ -4.2
7,U9A A19U A21U A60G C87G A115C G141U U144G,≤ -4.2
8,U9A A20C A26G A28U G67U U82C U90G G124A U134C U146A,≤ -4.2
9,U9A A20U A28U C79A C87U U139A,≤ -4.2
10,U9A A20U C27A A28C G58C G59C,≤ -4.2
11,U9A A21U A49U C87A C93U U104G U130A,≤ -4.2
12,U9A A21U U55A C85G G112C U145A,≤ -4.2
13,U9A A22G A29C G70C C75G,≤ -4.2
14,U9A A22G C36U A40C G88U,≤ -4.2
15,U9A A22U A39U C57A A73U G92A C93U A137U,≤ -4.2
16,U9A A22U U33C A40C A66G G84A,≤ -4.2
17,U9A A24G C54A C87G,≤ -4.2
18,U9A A24G C57U C63A G94C G128A,≤ -4.2
19,U9A A24U A37C G42C G50C G58A C85G A91C U148A,≤ -4.2
20,U9A A26U G74A G86U G88U A107U U134C U148C,≤ -4.2
21,U9A A26U G92U,≤ -4.2
22,U9A A28U C54A G59A A66U G86A,≤ -4.2
23,U9A A40C G141U,≤ -4.2
24,U9A A41G A91U C95A C96G U102G G133A U135C,≤ -4.2

row,Variant,polymerase ribozyme fitness (log ratio)
1,U9A A47C G58C G71U C87U G124U G143A,≤ -4.2
2,U9A A49C A52U,≤ -4.2
3,U9A A49C A66G A120C,≤ -4.2
4,U9A A49C C76A C129U,≤ -4.2
5,U9A A60C G81C C85U A107C U135G,≤ -4.2
6,U9A C10G A16U A41C A52C C57U G58U C79U C85G A97U U134G G141C,≤ -4.2
7,U9A C10U C75A C87A A110G A119C,≤ -4.2
8,U9A C14A A23U A30C C36A C95U A110U,≤ -4.2
9,U9A C27A C32G A40G U55A G83A G136C G141U G143U U148A,≤ -4.2
10,U9A C27G G50U G126U G136U U144G,≤ -4.2
11,U9A C27U C75A,≤ -4.2
12,U9A C27U G48C C76G A91C C118A U135C,≤ -4.2
13,U9A C32G A40G U104G C131A,≤ -4.2
14,U9A C35A U55C A64C G94U G136A,≤ -4.2
15,U9A C36A C72G G92A C129A A137U,≤ -4.2
16,U9A C57G G84U,≤ -4.2
17,U9A C63U C69U C76U C93A A113U G136C,≤ -4.2
18,U9A C69U C75U C76U C93A A137C,≤ -4.2
19,U9A C85G,≤ -4.2
20,U9A C96U A110C,≤ -4.2
21,U9A G42A A47C C57U C96G A110U,≤ -4.2
22,U9A G42C U55A A73U G83C G84A G88U,≤ -4.2
23,U9A G46U C87A C93U,≤ -4.2
24,U9A G50A G94U,≤ -4.2

row,Variant,polymerase ribozyme fitness (log ratio)
1,U9A G59A A60C C93U,≤ -4.2
2,U9A G68A C85G A106G A137G A138U,≤ -4.2
3,U9A G74C A91C U130G,≤ -4.2
4,U9A G88U,≤ -4.2
5,U9A U15A G48C C51G G84A,≤ -4.2
6,U9A U15G C27U G83A U102G,≤ -4.2
7,U9A U31G G58U A73U C123U U135A,≤ -4.2
8,U9A U55G U78G G143C,≤ -4.2
9,U9C A12U A41G U44G C51A C75A C87G A113G G141A,≤ -4.2
10,U9C A16C A29G A30U C93U C96A C105G A121C G143C,≤ -4.2
11,U9C A16G U44G A49G A64G C105G G124A,≤ -4.2
12,U9C A16U G86U G140A U145G U148A,≤ -4.2
13,U9C A17G U55G A66G C75G C85G C123G,≤ -4.2
14,U9C A17U A89G A122G,≤ -4.2
15,U9C A19G G25C A91U C96U,≤ -4.2
16,U9C A19U A21G G68C A89U C105U A107G,≤ -4.2
17,U9C A19U A37C U90A C95A C129G,≤ -4.2
18,U9C A20C A41G G46C G50C G88U C95A G124U,≤ -4.2
19,U9C A22C G92A G124C A147U,≤ -4.2
20,U9C A23C A30C G59U C87A C125U,≤ -4.2
21,U9C A28G G58C A91U G126A A142G,≤ -4.2
22,U9C A28U G88U C95U,≤ -4.2
23,U9C A29C,≤ -4.2
24,U9C A29G C87G,≤ -4.2

row,Variant,polymerase ribozyme fitness (log ratio)
1,U9C A29U G50U C76U G86U C93U C116G U148C,≤ -4.2
2,U9C A30U G58A C93G,≤ -4.2
3,U9C A39G A73U C96U,≤ -4.2
4,U9C A39G A91U U102A U148A,≤ -4.2
5,U9C A40U C76A C93U G141A,≤ -4.2
6,U9C A47C A60G G84C C93A C105G A113U U127C,≤ -4.2
7,U9C A49G A106G C116U G136A A137C G143A U144C U148G,≤ -4.2
8,U9C A138G,≤ -4.2
9,U9C C10G U55A C123U G141A,≤ -4.2
10,U9C C27G A40G G50U C57U C72U C95U C99G U144G,≤ -4.2
11,U9C C38U C51U A52G G74C C85G G143C U145A,≤ -4.2
12,U9C C43G G86A U101G,≤ -4.2
13,U9C C54U C87G C93U,≤ -4.2
14,U9C C93A U134C U151A,≤ -4.2
15,U9C G11C A24G C35U G59U A60U C105G,≤ -4.2
16,U9C G11U C35U U78G U130A A150C,≤ -4.2
17,U9C G50C C75G C85G C125A,≤ -4.2
18,U9C G58U U82G G84U U90G A97G A115U C116A A147G,≤ -4.2
19,U9C G59U A60C G74C C131U,≤ -4.2
20,U9C G83C C87G,≤ -4.2
21,U9C G92A A98G C103G,≤ -4.2
22,U9C G94A U144A,≤ -4.2
23,U9C U13G C18U A21U C38A U44G G68C G92U G94A G133U A142G U144C,≤ -4.2
24,U9C U15G C93A,≤ -4.2

row,Variant,polymerase ribozyme fitness (log ratio)
1,U9C U44A G81A C87G,≤ -4.2
2,U9G A17C C57U G86A,≤ -4.2
3,U9G A19U A66G C69A C75A C85A G86U A97U C116A C149U,≤ -4.2
4,U9G A19U G65A C105U A106U,≤ -4.2
5,U9G A20U C36G C54A U56A C75G G86A C123U A137G A150C,≤ -4.2
6,U9G A21C C35U C85G,≤ -4.2
7,U9G A24C A66C C72U G83A A110C A119G U134G,≤ -4.2
8,U9G A24G A30G C87G,≤ -4.2
9,U9G A24G G48C U53A A66C G67A G84U C96U A119G U134C,≤ -4.2
10,U9G A24U G25A C32U A37C G42A U55A C87A C125G,≤ -4.2
11,U9G A26C C38U G133A A147G,≤ -4.2
12,U9G A26U G48A U56C C63A A91C C108G C116G A120U G141C,≤ -4.2
13,U9G A29U U31A U77C C93G G126U,≤ -4.2
14,U9G A30G G62C C95U G141A,≤ -4.2
15,U9G A49G U56A G81C U82G C93U A122C,≤ -4.2
16,U9G A52G C72G C96U C105A A115G U127C G133U,≤ -4.2
17,U9G A60U U77G,≤ -4.2
18,U9G A66G A113U U146G,≤ -4.2
19,U9G A73U C87U U102A C105G C108A,≤ -4.2
20,U9G C10A C43U C57G C99A,≤ -4.2
21,U9G C10G C87G C93U G124C,≤ -4.2
22,U9G C14A C85U G141U,-4.19
23,U9G C14G A19U A21G A28U G70U C79G C93U C95A C96U C118G G133U,≤ -4.2
